Laboratory results taken from the supplement of paper PMC3334620.
The full ranking holds about 33,000 sequences; the median of “E-score (-0.5 to 0.5)” is about -0.054, and the highest 2% start at about 0.35. The list shows a part of the results.

Target: T1, Stb5 (UniProt P38699)
T1 sequence: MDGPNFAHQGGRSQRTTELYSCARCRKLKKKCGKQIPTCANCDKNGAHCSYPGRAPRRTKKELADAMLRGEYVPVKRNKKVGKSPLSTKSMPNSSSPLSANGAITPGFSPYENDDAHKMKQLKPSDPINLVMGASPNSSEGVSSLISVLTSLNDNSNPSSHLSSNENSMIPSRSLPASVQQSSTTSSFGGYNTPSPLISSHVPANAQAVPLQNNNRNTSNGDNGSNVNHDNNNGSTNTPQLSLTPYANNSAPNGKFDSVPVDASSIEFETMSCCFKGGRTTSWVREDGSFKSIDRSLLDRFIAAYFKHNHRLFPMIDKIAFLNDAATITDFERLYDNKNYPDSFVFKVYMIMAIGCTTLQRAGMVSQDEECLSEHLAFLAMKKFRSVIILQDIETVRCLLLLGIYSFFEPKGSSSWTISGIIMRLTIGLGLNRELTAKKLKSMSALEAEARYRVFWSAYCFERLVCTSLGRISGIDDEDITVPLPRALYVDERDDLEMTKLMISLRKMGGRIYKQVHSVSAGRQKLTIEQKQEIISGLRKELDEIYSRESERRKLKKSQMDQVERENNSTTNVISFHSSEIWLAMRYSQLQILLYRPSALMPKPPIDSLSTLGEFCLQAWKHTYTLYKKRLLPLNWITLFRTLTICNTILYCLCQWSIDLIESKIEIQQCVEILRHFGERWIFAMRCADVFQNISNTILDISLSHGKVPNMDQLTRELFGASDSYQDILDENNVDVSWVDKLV
Test: PBM E-score (8-mer binding enrichment) (E-score (-0.5 to 0.5)); higher = stronger / more preferred TF binding; most listed sequences are background and not binding sites
Conditions: protein concentration: 200 nM; construct: GST-full length
In short: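 Using PURExpress in vitro transcription/translation, GST-tagged yeast transcription factors were made in full-length or DNA-binding-domain form. These were applied at about 100-200 nM to double-stranded universal all-10-mer Agilent arrays, and bound protein was detected with fluorescent anti-GST. Scans were normalised with masliner before the Universal PBM Analysis Suite assigned E-scores to ungapped eight-base words pooled with their reverse complements.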

Sequence	PBM E-score
ACTGTCCG	0.144
TACAACAA	-0.0815
TGCGTACA	-0.281
CGCTGAGA	0.0792
AACCTTAC	-0.0791
CTGTGGTA	-0.0765
GCCAGAAA	-0.167
CCATATAC	0.0294
CAGCAGTC	-0.115
AGGGCGGC	0.232
ACACTTCT	-0.0711
ATTGATAG	-0.0574
CTATGAAA	-0.0568
ATATAACA	0.153
GACACCTA	0.0139
GTTCATAA	-0.0507
AATCTACC	0.0436
GTCTGTTA	-0.0938
CAACATAC	-0.00778
GAGTGCGA	-0.0379
CTTAAGCC	0.181
CCCAACGC	-0.0092
ACTTCACA	-0.198
CAGAGCAG	-0.254
ACAAGAAT	-0.107

Sequence	PBM E-score
AATTGTAC	-0.0892
ACGGCCCG	0.195
ACTCTCTC	-0.0585
ATGCGTTG	-0.0346
ACTGTTTG	-0.296
AGTATACA	-0.0104
GACTTAAA	0.122
ACTTTGGA	-0.067
CTGGGAAC	-0.155
GCATCCAC	-0.0534
GGTTTAAC	0.165
AAGATTCA	-0.00953
AAGACTAT	-0.206
CAGCCTAA	-0.239
AAGGGACT	-0.0514
GACACAGA	0.151
ACGGACAC	0.215
CTCCTCGA	-0.212
CTTCGCGC	-0.0963
CAACACGG	0.23
CCAACTAC	-0.0654
TATTAATA	0.261
CCATCGAG	-0.218
CCGCTCAG	0.296
ATCGAGAC	-0.168

Sequence	PBM E-score
AGCCATAT	-0.197
ATCGTGCA	-0.108
CAGGTTCA	-0.262
CTGGACTA	-0.143
CGTGTGAA	0.0103
GCGATCTA	-0.119
CCAAGGAG	-0.03
AAGGCAGA	-0.214
CTCTGGTC	0.0231
GTCTCCAC	-0.178
ACGTACTC	-0.159
CCCTATAA	-0.0737
CGATCCTC	-0.1
TCCATAAA	-0.324
AGATAATC	0.103
GATCCAGA	-0.174
CAGCGATA	0.0123
AATGGTTA	-0.146
CCACGCCG	0.111
AATTACCA	-0.0811
GAGACTGA	-0.156
GAATCGAC	0.0648
CTAACCTA	0.0543
CGCTTACA	-0.0187
GCCCATAA	0.121

Sequence	PBM E-score
CTGTAGCC	-0.0285
TGTAGCAA	-0.0607
GCTCACCA	-0.16
AAGCTTCC	-0.208
GGGCAGGA	-0.0876
ATTATGTC	-0.0356
GCTCCCCA	-0.316
CTTGGGCA	-0.0874
ATACGTAT	0.00623
ATCGGCGA	0.272
AACGATTA	-0.193
ATAGATTC	-0.148
ACCCTGCA	-0.16
ATGGCACG	0.101
CAACATGG	-0.0428
GGGACGTA	-0.0666
AAAAGTGT	-0.139
TAACCCTA	-0.172
GCGTAGCA	0.0274
ACCGCCGT	0.38
TAGTTTAA	0.0196
AACTCATT	-0.0597
CATGCATG	-0.273
AGTGGCCA	-0.256
AGTACCGG	0.367

Sequence	PBM E-score
AGAATACC	0.0954
CTAAGTAG	-0.175
GAGGTCGC	-0.0312
CGAGACTC	-0.0906
GACCGGGC	0.211
CCACTCCG	0.199
CTTAGTCA	-0.126
AAGCTACG	-0.0504
GTATTGGA	-0.0794
GATTGAGA	0.021
AAGGTTGG	-0.231
AATTAGAT	-0.13
GCATCGCA	-0.0259
GCCGAAAC	0.213
AACGATAC	-0.295
GATAGTCC	0.071
GCAATGCC	0.0649
CCACGTAA	-0.154
ATATTCAA	-0.153
GGACAAGA	0.0873
ACCGGATC	0.198
GTCCCCCA	-0.363
CCTAAGAA	-0.251
CGAATGAG	0.141
ATTTTACG	0.114

Sequence	PBM E-score
CCTCTAAC	0.00383
GGCTAAAA	0.131
ACTGACAT	-0.24
ATAGATCC	0.332
AGACGAGA	-0.251
TAATAACA	0.0646
GCCATGTA	0.0166
ACGATCCA	-0.199
AGACAAAG	-0.272
CAGTAATC	-0.229
AACTTTAT	-0.021
AGCTAGTA	-0.198
CTTCAAAC	-0.0803
GCGATGAA	0.0216
AGCTAGCT	-0.44
AGTATTTA	-0.153
ATGGTAGA	-0.175
CTGAAACA	0.00569
AACACGGT	0.103
GAGGAGGC	-0.219
CGATGTAG	-0.0702
CTTTCTTC	-0.126
AACAAATT	-0.146
GGAACATA	0.0234
CTAACGGA	0.297

Sequence	PBM E-score
AGAAATAC	0.0397
AGGATACG	-0.0379
CGATGAAC	0.126
ACAAGTGG	-0.17
AGGCGGTC	0.258
CCTCGCGA	-0.122
ACATGCAA	-0.165
ATCCGTAC	0.0997
CTTAAACC	-0.0424
GACAATCA	-0.0791
CGAGTAAG	-0.0321
CCTGTTTA	0.0509
CACGTGGC	-0.0602
GGACCACC	-0.107
GGCCCACA	-0.107
AGAGCTAG	-0.218
GTAGTCAC	-0.101
CTAGAGGA	-0.142
AAGGGGTG	-0.18
ACTTCGAT	-0.0947
CGCTACTC	0.0831
AGTGTAGC	-0.15
GCCTGCAA	-0.0794
GATCTGCC	0.0794
AAAGAATC	0.00308

Sequence	PBM E-score
ACAGCAAT	-0.0131
GAGCAGCA	-0.183
CCGTTCCC	0.251
ATACGATC	-0.135
AGCATGGG	-0.0965
GAATGAGA	-0.00577
AATGTGCA	-0.241
AGTGAGCG	-0.114
GTAAATAC	0.22
AAGCAAGC	-0.113
GGAGTGCA	0.0406
TTGCGAAA	0.0793
AAGTTTCC	-0.0966
GAAAAGTA	-0.244
CCTTATGA	-0.0215
CCTTTCAG	-0.0491
GGAGCGCA	-0.165
CAAGTTAC	0.0162
ATTTTACC	0.223
CGCTTCCA	-0.0991
GTTTGGAA	-0.197
ATAGGCGG	0.27
GGACAGAC	-0.0867
CGCGACAC	0.24
AGTGCGTA	-0.137

Sequence	PBM E-score
ACCACGTA	-0.247
GAAGGATC	-0.163
CGAGGAAG	-0.0975
CAATACCG	0.332
CGTGAGCA	0.0927
GACAGTGC	-0.134
ACTTCTCA	-0.308
CGTGTCAA	0.0525
CAGTCCCG	0.192
GCGATTAA	0.143
AGTAGCTG	-0.158
AACTATAT	0.186
GAGGCGTA	-0.0698
CGTGCTAG	-0.248
ATCATCTG	-0.0678
ACCATTTG	-0.0611
AAGATTTC	-0.115
TCAGACCA	-0.254
AGCTTGAA	-0.237
